Test results reported in PubChem BioAssay AID1159614 (National Center for Advancing Translational Sciences (NCATS), 2016).
Hit rate of the full screen: of about 45,000 compounds, about 65 (0.1%) were called active. Calls follow the shape of the dose curve; as a rule, active = well fitted activation curve with a large enough effect; inconclusive = small, poorly fitted or top-dose-only effect; inactive = no such curve, though single readings can be large or run the other way. The list shows a part of the results.

These compounds were tested against Galactocerebrosidase (Homo sapiens) (UniProt P54803) (assay: A Novel Cell-Based Assay to Identify Small Molecules for B -Galactocerebrosidase). Conditions: 145M-Twi-hGALC-G270D cells (Twitcher mouse brain line with human GALC G270D), HMU-beta-Gal fluorescence, 48 h; series mostly up to 57.5 µM; activation: at the top concentration.
Method in brief: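 Fluorogenic HMU-b-Gal hydrolysis (0.1 mM final, pH 5.2 citrate-phosphate with 1 mg/mL sodium taurocholate; carbonate stop buffer) measures mutant GALC activity after compound treatment of live 145M-Twi Twitcher brain cells stably carrying human GALC-G270D, with wild-type GALC line alongside; activation sought.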
Also: 0% is about no effect; nearly all actives have a fitted effect of over 65% in size.

Chain of UniProt P54803 (P54803 whole entry, looked up): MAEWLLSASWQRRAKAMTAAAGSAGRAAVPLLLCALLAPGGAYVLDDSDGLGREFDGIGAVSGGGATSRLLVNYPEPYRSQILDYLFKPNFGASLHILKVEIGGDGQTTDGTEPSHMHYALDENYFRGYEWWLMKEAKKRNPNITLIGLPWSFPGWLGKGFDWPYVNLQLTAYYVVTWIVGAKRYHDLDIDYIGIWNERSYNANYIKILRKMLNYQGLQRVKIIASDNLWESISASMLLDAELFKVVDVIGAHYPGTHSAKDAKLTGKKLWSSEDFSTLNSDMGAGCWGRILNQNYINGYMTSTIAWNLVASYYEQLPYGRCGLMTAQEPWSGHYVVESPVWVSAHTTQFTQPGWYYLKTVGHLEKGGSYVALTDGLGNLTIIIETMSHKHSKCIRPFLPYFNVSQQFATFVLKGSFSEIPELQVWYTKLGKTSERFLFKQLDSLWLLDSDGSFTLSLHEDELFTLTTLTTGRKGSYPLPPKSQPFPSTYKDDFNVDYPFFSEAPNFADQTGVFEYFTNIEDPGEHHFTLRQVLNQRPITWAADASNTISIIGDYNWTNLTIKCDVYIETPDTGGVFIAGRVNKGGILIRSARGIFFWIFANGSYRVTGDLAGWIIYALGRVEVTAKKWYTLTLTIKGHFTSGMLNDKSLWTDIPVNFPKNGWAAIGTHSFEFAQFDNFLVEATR

activation, inactive:
COc1ccc(OC)c(CNC(=O)c2nn(C)c3c2CSc2ccccc2-3)c1 -6.95%
O=C(NCc1ccc(F)cc1)c1ccc2nc(N3CCCCC3)sc2c1 7.4%
Cc1ccc(NC(=O)CCC(=O)N2Cc3ccccc3Oc3ncccc32)cc1F -1.47%
CCOc1ccc(NC(=O)c2ccc3c(c2)CCN3S(=O)(=O)c2ccc(Cl)cc2)cc1 -9.77%
Cc1cccc(Cn2c(=O)n(CCC(=O)NCCc3ccc(Cl)cc3)c(=O)c3sccc32)c1 -0.804%
Cc1ccc(NC(=O)CCCc2nnc3n(C)c(=O)c4sccc4n23)cc1F -5.29%
COc1ccc(-c2nc3c(c(SCC(=O)Nc4ccccc4F)n2)Cc2cc(C)ccc2O3)cc1 -6.42%
CC(=O)c1ccc(NC(=O)c2cc(S(=O)(=O)N3CCCCCC3)cn2C)cc1 0.754%
Cc1ccc(C)c(N2CCN(C(=O)C3CCCN(Cc4nc(-c5cccc(Cl)c5)oc4C)C3)CC2)c1 (stereo not given) -16.3%
CC1CCn2c(nc3cc(C(=O)NCc4ccccc4)ccc32)C1 (stereo not given) -24.3%
O=C(CNC(=O)c1ccccc1)OCc1cc(=O)n2ccsc2n1 -11.9%
CCc1ccccc1NC(=O)CN1C(=O)c2ccccc2Sc2ncccc21 2.1%
NC(=O)C1(N2CCCCC2)CCN(C(=O)Nc2ccc(F)cc2)CC1 -15.9%
CC(O)Cn1cnc2c1c(=O)n(C)c(=O)n2C (stereo not given) -11.8%
CCCNC(=O)c1ccc2c(c1)sc1nc(-c3ccc(C)cc3)cn12 -8.93%
Cc1ccc(-c2cn(-c3cccc(Cl)c3)c(S(=O)(=O)CC(=O)Nc3cccc(C)c3)n2)cc1 -4.22%
CCOC(=O)c1c(S(=O)(=O)N2CCCC(C(=O)NCc3cccc(OC)c3)C2)c(C)n(C)c1C (stereo not given) -18.7%
COc1ccc(CCNc2nc(-c3ccc(OC)c(OC)c3)cc(C(F)(F)F)n2)cc1OC -2.08%
Cc1cccc(CS(=O)(=O)Cc2ccc(C(=O)NCCc3ccccc3)o2)c1 0.634%
Cc1ccc(N2CC(NC(=O)c3ccc(S(=O)(=O)N4CCCC4)cc3)CC2=O)cc1C (stereo not given) -18.9%
CCn1cc(C(=O)NCCCN2CCCC(C)C2)c(=O)c2cc(S(=O)(=O)N(C)C3CCCCC3)ccc21 (stereo not given) -12.2%
Cc1cc(C)cc(-n2ccn(CC(=O)Nc3cc(C)ccc3C)c(=O)c2=O)c1 -17.9%
O=C(NCc1ccccc1)C1CCN(S(=O)(=O)c2ccc3c(c2)CCCN3C(=O)C2CCC2)CC1 -17.6%
COc1ccc(-c2nnc(SCC(=O)NC3CCCC3)nc2-c2ccc(OC)c(OC)c2)cc1OC -0.322%
CCOc1ccc(N2CC(c3nc4ccccc4n3Cc3ccccc3F)CC2=O)cc1 (stereo not given) 1.5%
COc1cccc(OC)c1C(=O)Nc1cccc(-c2cn3ccsc3n2)c1 -4.31%
Cc1ccc(Cl)cc1N1CCN(C(=O)CCNS(=O)(=O)c2ccc3c(c2)CCN3C(=O)C2CC2)CC1 -29.3%
CCCCCSc1ncnc2c1sc1nc(N3CCOCC3)c3c(c12)CCCC3 -11.3%
Cc1ccc(NC(=O)NCc2cccn2Cc2ccccc2)c(C)c1 -13.7%
CCOc1ccc(NC(=O)c2ccc(F)c(S(=O)(=O)N(CC)Cc3ccccc3)c2)cc1 -13.4%
Cc1cccc(NC(=O)C(=O)NCC(c2cccnc2)N2CCc3ccccc3C2)c1C (stereo not given) -12.5%
O=C(CCC1N=C2c3ccccc3N=C(SCc3cccc(F)c3)N2C1=O)NCc1cccs1 (stereo not given) -19.5%
CCOC(=O)c1scc(-c2ccc(C)cc2)c1S(=O)(=O)N1CCN(c2ccccc2F)CC1 -13.3%
CCCCc1nn2c(=O)cc(COC(=O)C3CCCCC3)nc2s1 -13.7%
O=C(OOC(=O)c1ccccc1)c1ccccc1 -16.5%
Cc1nc2nc(SCC(=O)NC3CCC(C)CC3)nn2c(C)c1Cc1ccccc1 (stereo not given) 13.7%
CCOc1ccc(OCC)c(NC(=O)c2ccc(-c3ccccc3)s2)c1 -26.4%
Nc1cc(=O)[nH]c(N)n1 -18.3%
CCOc1ccc(CCNC(=O)c2sc3ncccc3c2-n2cccc2)cc1OCC -19.7%
COC(=O)c1ccc(-c2nc3cc(NC(C)=O)ccc3o2)cc1 4.76%
COc1ccc(OC)c(NC(=O)c2cc(S(=O)(=O)NCCc3ccc(Cl)cc3)ccc2F)c1 -14.5%
CCC(C)NC(=O)Cn1c(=O)n(-c2ccc(C)c(C)c2)c(=O)c2c3c(sc21)CCCCC3 (stereo not given) -16.2%
COc1ccc(-c2nnc(SCC(=O)Nc3ccc(C(C)C)cc3)nc2-c2ccc(OC)c(OC)c2)cc1OC -6.82%
CC(=O)c1cccc(NC(=O)c2cc(-c3ccc(Cl)s3)nc3ccccc23)c1 -6.3%
COc1ccc(NC(=O)CC2C(=O)N(c3cccc(C)c3)C(=O)N2C2CCCCC2)cc1 (stereo not given) -20.2%
COc1cccc(C(=O)Nc2ccc(-c3cc(C(F)(F)F)nn3-c3ccccc3)cc2)c1 -24.9%
CC(C)Cc1ccc(S(=O)(=O)Nc2cc3c(cc2N2CCOCC2)n(C)c(=O)c(=O)n3C)cc1 -6.3%
CCOc1ccccc1CNS(=O)(=O)c1ccc2[nH]c(=O)ccc2c1 -21.4%
Cc1ccc(C)c(CN2C(=O)N(c3cc(Cl)ccc3C)S(=O)(=O)c3ccccc32)c1 -1.96%
Cc1ccc(C)c(Cn2c(-c3cccs3)nc3ccccc32)c1 -40%
CC(C)c1ccc(S(=O)(=O)c2nnn3c2nc(N2CCCCC2)c2sccc23)cc1 -4.7%
CCC(C)(Oc1ccc(C2(c3ccc(OC(C)(CC)C(=O)O)cc3)CCCCC2)cc1)C(=O)O (stereo not given) -21.2%
CCCCN(C)CCCNC(=O)c1cc(-c2ccc(Br)s2)nc2ccccc12 -13.1%
CCOc1ccc(CCNC(=O)CCCn2nc(C)c3sc4ccccc4c3c2=O)cc1 -11.3%
COc1cccc(Nc2sc(C(=O)c3ccc(F)cc3)c(N)c2C(=O)NCc2ccc(Cl)cc2)c1 -0.887%
Cc1cccc(NC(=O)CCCCCn2c(=O)[nH]c3ccsc3c2=O)c1 -5.31%
CN(Cc1ccccc1)S(=O)(=O)c1cc(Br)cc2c1N(C(=O)C1CC1)CC2 -12.4%
CCC(C(=O)Nc1c(C)cc(C)cc1C)n1c(=O)c(-c2ccccc2NC(C)=O)nc2ccccc21 (stereo not given) -20.6%
CCOC(=O)C1CCCN(C(=O)c2cc3c(=O)[nH]c4ccc(C)cc4c3s2)C1 (stereo not given) -2.13%
COc1ccc(NC(=O)CSc2nnc(NC(=O)Nc3ccc(OC)cc3)s2)cc1 -14.1%
CCN(CCCNC(=O)CN1N=C(c2ccc(OC)cc2)CCC1=O)c1cccc(C)c1 -34%
Cc1ccc(-c2noc(CNC(=O)c3ccc(Br)o3)n2)cc1 -4.91%
Cc1cccc(N2CCN(C(=O)c3cn(CC(C)C)c(=O)c4c3c3ccccc3n4C)CC2)c1C -6.64%
COc1ccc(-c2ccc(NS(=O)(=O)c3ccc(C(C)=O)cc3)cc2)nn1 -10.6%
COc1cccc(N2CC(NC(=O)CCCc3ccccc3)CC2=O)c1 (stereo not given) -15.3%
Cc1ccc(NS(=O)(=O)c2c(C)[nH]c(=O)[nH]c2=O)c(C)c1 -8.82%
CCOc1ccccc1CNC(=O)C1CCN(c2nn3cc(-c4ccc(F)cc4)nc3s2)CC1 6.16%
CCCCCCOc1ccc(C2C(=O)N(C3CCCCC3)CC(=O)N2CCC)cc1 (stereo not given) -9.97%
Cc1ccccc1-c1nc2cc(NC(=O)Cc3ccc(Cl)cc3)ccc2o1 -4.05%
Cc1cccc(N2CCN(C(=O)c3cccc(-n4c(C)nc5cccnc54)c3)CC2)c1C -31.1%
COc1ccccc1Cc1nc2ccccc2nc1SCC(=O)N(C)c1ccc(F)cc1 2.72%
Cc1cccc(N2CCN(C(=O)Nc3cn(CC(C)C)c(=O)c4ccccc34)CC2)c1C -26.8%
Cc1nnc(N2CCC(C(=O)NCCc3ccccc3Cl)CC2)c2nn(-c3ccccc3)c(C)c12 -19.2%
Cc1ccc(C(=O)Nc2cc3nn(-c4ccccc4)nc3cc2Cl)c(C)c1 -5.97%
CC(C)c1ccc(CN(Cc2ccco2)c2cnc(S(C)(=O)=O)nc2C(=O)Nc2ccc(F)cc2)cc1 -3.64%
N#C/C(=C\c1ccc(Cl)cc1Cl)c1nc(-c2cccc(Cl)c2)cs1 -3.24%
CCOc1ccccc1N(CC(=O)NCCSc1ccccc1)S(=O)(=O)c1ccccc1 3.81%
CCCCN(C)C(=O)C1CCCN(c2ncnc3onc(C)c23)C1 (stereo not given) -39.2%
COc1ccccc1N1CCN(C(=O)Cn2cnc3onc(-c4ccc(F)cc4)c3c2=O)CC1 -29.1%
CCc1nn(CC(=O)NCCCN(CC(C)C)CC(C)C)c(=O)c2cc3sc(C)cc3n12 -14.5%
COc1cccc(N2CC(NC(=O)c3ccco3)CC2=O)c1 (stereo not given) -11.7%
COc1ccc(Cn2c(=O)c3oc4ccccc4c3n(Cc3cccc(C(F)(F)F)c3)c2=O)cc1 -7.27%
O=C(c1ccc2c(=O)n(CCc3ccccc3)c(=O)[nH]c2c1)N1CCN(c2ccc(F)cc2)CC1 -22.9%
Cc1nn(-c2ccccc2)c2c1N(CC(=O)N1CCN(c3cccc(Cl)c3)CC1)C(=O)CS2 -11.3%
CCC(C)NC(=O)c1ccc2c(c1)N(Cc1ccccc1)C(=O)c1ccccc1S2 (stereo not given) 0.28%
Cc1ccccc1-n1c(SCc2ccc(Cl)cc2)nc2[nH]ncc2c1=O -20.7%
COc1cccc(N2CCN(C(=O)CCc3c(C)nc4c(c3C)c(=O)n(C)c(=O)n4C)CC2)c1 -4.9%
CCN(CC)c1cc2c(cc1F)c(=O)c(S(=O)(=O)c1ccc(OC)cc1)cn2CC -18.8%
CCOc1ccc(CNC(=O)C2CCCN(S(=O)(=O)c3ccc4c(ccn4C)c3)C2)cc1 (stereo not given) -17%
Cc1ccc(-c2nnc(SCc3cccc(C#N)c3)o2)cc1 -2.5%
CCOC(=O)Cn1c(=O)n(-c2ccccc2OC)c2nc(-c3cccc(F)c3)nc(C(N)=O)c21 -39%
CCOC(=O)c1ccccc1NC(=O)N(C(C)C)C1CCN(C(C)=O)CC1 -4.09%
Cn1nnc2c(N3CCN(c4ccccc4Cl)CC3)ncnc21 -20.8%
COc1ccc(-c2nc(CN3CCC(C(=O)NCc4ccccc4)CC3)c(C)o2)cc1OC -11.7%
COc1ccc(-c2c3c(=O)n(C)c(=O)n(C)c3c3c(C)nc4ccccc4n23)cc1 -13.9%
